# Source: the supplement of paper PMC8728848
# Some of the results follow.
# B1: Jacalin (Artocarpus integrifolia) (protein)
# chain: MAYSSLLSLSVLALLFSISSADTRKWFLANGINQNPIGIIEAAVGVSEDLLNLNGMEAKNDEQSGISQTVIVGPWGAKVSTSSNGKAFDDGAFTGIREINLSYNKETAIGDFQVVYDLNGSPYVGQNHKSFITGFTPVKISLDFPSEYIMEVSGYTGNVSGYVVVRSLTFKTNKKTYGPYGVTSGTPFNLPIENGLIVGFKGSIGYWLDYFSMYLSL
# Tests used:
# Assay in all cases: glycan array binding signal (z-score within array); higher = stronger binding
# Details in all cases: glycan notation: IUPAC condensed, linker removed
# [1] = molecular target: GlcNAc(b1-3)Gal(b1-4)GlcNAc(b1-3)Gal(b1-4)GlcNAc
# Outline: (§1)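 Negative Z-scores can be read as non-binding. The Z-score is calculated within each array and then averaged across arrays of one protein sequence at different concentrations or buffers and across linkers. Arrays, 3228 in all, were curated from the Consortium for Functional Glycomics database and kept only where the protein sequence was available.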
# [2] = molecular target: GlcNAc(b1-3)Gal(b1-4)GlcNAc(b1-3)Gal(b1-4)GlcNAc(b1-2)Man(a1-3)[GlcNAc(b1-3)Gal(b1-4)GlcNAc(b1-3)Gal(b1-4)GlcNAc(b1-2)Man(a1-6)]Man(b1-4)GlcNAc(b1-4)GlcNAc
# Outline: as §1
# [3] = molecular target: GlcNAc(b1-3)Gal(b1-4)GlcNAc(b1-3)Gal(b1-4)GlcNAc(b1-2)Man(a1-3)[GlcNAc(b1-3)Gal(b1-4)GlcNAc(b1-3)Gal(b1-4)GlcNAc(b1-2)Man(a1-6)]Man(b1-4)GlcNAc(b1-4)[Fuc(a1-6)]GlcNAc
# Outline: as §1
# [4] = molecular target: GlcNAc(b1-3)Gal(b1-4)GlcNAc(b1-3)Gal(b1-4)GlcNAc(b1-2)[GlcNAc(b1-3)Gal(b1-4)GlcNAc(b1-3)Gal(b1-4)GlcNAc(b1-6)]Man(a1-6)[GlcNAc(b1-3)Gal(b1-4)GlcNAc(b1-3)Gal(b1-4)GlcNAc(b1-2)Man(a1-3)]Man(b1-4)GlcNAc(b1-4)[Fuc(a1-6)]GlcNAc
# Outline: as §1
# [5] = molecular target: GlcNAc(b1-3)Gal(b1-4)GlcNAc(b1-3)Gal(b1-4)GlcNAc(b1-3)Gal(b1-4)GlcNAc(b1-2)Man(a1-3)[GlcNAc(b1-3)Gal(b1-4)GlcNAc(b1-3)Gal(b1-4)GlcNAc(b1-3)Gal(b1-4)GlcNAc(b1-2)Man(a1-6)]Man(b1-4)GlcNAc(b1-4)GlcNAc
# Outline: as §1
# [6] = molecular target: GlcNAc(b1-3)Gal(b1-4)GlcNAc(b1-3)Gal(b1-4)GlcNAc(b1-3)Gal(b1-4)GlcNAc(b1-2)Man(a1-3)[GlcNAc(b1-3)Gal(b1-4)GlcNAc(b1-3)Gal(b1-4)GlcNAc(b1-3)Gal(b1-4)GlcNAc(b1-2)Man(a1-6)]Man(b1-4)GlcNAc(b1-4)[Fuc(a1-6)]GlcNAc
# Outline: as §1
# [7] = molecular target: GlcNAc(b1-3)Gal(b1-4)GlcNAc(b1-3)Gal(b1-4)GlcNAc(b1-3)Gal(b1-4)GlcNAc(b1-2)[GlcNAc(b1-3)Gal(b1-4)GlcNAc(b1-3)Gal(b1-4)GlcNAc(b1-3)Gal(b1-4)GlcNAc(b1-6)]Man(a1-6)[GlcNAc(b1-3)Gal(b1-4)GlcNAc(b1-3)Gal(b1-4)GlcNAc(b1-3)Gal(b1-4)GlcNAc(b1-2)Man(a1-3)]Man(b1-4)GlcNAc(b1-4)[Fuc(a1-6)]GlcNAc
# Outline: as §1
# [8] = molecular target: GlcNAc(b1-3)Gal(b1-4)GlcNAc(b1-3)Gal(b1-4)GlcNAc(b1-3)Gal(b1-4)GlcNAc(b1-3)Gal(b1-4)GlcNAc(b1-2)Man(a1-3)[GlcNAc(b1-3)Gal(b1-4)GlcNAc(b1-3)Gal(b1-4)GlcNAc(b1-3)Gal(b1-4)GlcNAc(b1-3)Gal(b1-4)GlcNAc(b1-2)Man(a1-6)]Man(b1-4)GlcNAc(b1-4)GlcNAc
# Outline: as §1
# [9] = molecular target: GlcNAc(b1-3)Gal(b1-4)GlcNAc(b1-3)Gal(b1-4)GlcNAc(b1-3)Gal(b1-4)GlcNAc(b1-3)Gal(b1-4)GlcNAc(b1-2)Man(a1-3)[GlcNAc(b1-3)Gal(b1-4)GlcNAc(b1-3)Gal(b1-4)GlcNAc(b1-3)Gal(b1-4)GlcNAc(b1-3)Gal(b1-4)GlcNAc(b1-2)Man(a1-6)]Man(b1-4)GlcNAc(b1-4)[Fuc(a1-6)]GlcNAc
# Outline: as §1
# [10] = molecular target: GlcNAc(b1-3)Gal(b1-4)GlcNAc(b1-3)Gal(b1-4)GlcNAc(b1-3)Gal(b1-4)GlcNAc(b1-3)Gal(b1-4)GlcNAc(b1-2)[GlcNAc(b1-3)Gal(b1-4)GlcNAc(b1-3)Gal(b1-4)GlcNAc(b1-3)Gal(b1-4)GlcNAc(b1-3)Gal(b1-4)GlcNAc(b1-6)]Man(a1-6)[GlcNAc(b1-3)Gal(b1-4)GlcNAc(b1-3)Gal(b1-4)GlcNAc(b1-3)Gal(b1-4)GlcNAc(b1-3)Gal(b1-4)GlcNAc(b1-2)Man(a1-3)]Man(b1-4)GlcNAc(b1-4)[Fuc(a1-6)]GlcNAc
# Outline: as §1
# [11] = molecular target: GlcNAc(b1-3)Gal(b1-4)GlcNAc(b1-3)Gal(b1-4)GlcNAc(b1-3)GalNAc
# Outline: as §1
# [12] = molecular target: GlcNAc(b1-3)Gal(b1-4)GlcNAc(b1-3)GalNAc
# Outline: as §1
# [13] = molecular target: GlcNAc(b1-3)Gal(b1-4)GlcNAc(b1-3)[GlcNAc(b1-3)Gal(b1-4)GlcNAc(b1-3)]GalNAc
# Outline: as §1
# [14] = molecular target: GlcNAc(b1-3)Gal(b1-4)GlcNAc(b1-6)[Gal(b1-3)]GalNAc
# Outline: as §1
# [15] = molecular target: GlcNAc(b1-3)Gal(b1-4)GlcNAc(b1-6)[GlcNAc(b1-3)Gal(b1-3)]GalNAc
# Outline: as §1
# [16] = molecular target: GlcNAc(b1-3)Gal(b1-4)GlcNAc(b1-6)[GlcNAc(b1-3)]Gal(b1-4)GlcNAc
# Outline: as §1
# GlcNAc(b1-3)GalNAc = molecular target: GlcNAc(b1-3)GalNAc
# Outline: as §1
# GlcNAc(b1-3)Man = molecular target: GlcNAc(b1-3)Man
# Outline: as §1
# [17] = molecular target: GlcNAc(b1-3)[GlcNAc(b1-4)][GlcNAc(b1-6)]GlcNAc
# Outline: as §1
# [18] = molecular target: GlcNAc(b1-3)[GlcNAc(b1-6)]Gal(b1-4)GlcNAc
# Outline: as §1
# [19] = molecular target: GlcNAc(b1-3)[GlcNAc(b1-6)]GalNAc
# Outline: as §1
# [20] = molecular target: GlcNAc(b1-3)[GlcNAc(b1-6)]GlcNAc(b1-4)GlcNAc
# Outline: as §1
# [21] = molecular target: GlcNAc(b1-4)Gal(b1-4)GlcNAc
# Outline: as §1
# GlcNAc(b1-4)GlcNAc = molecular target: GlcNAc(b1-4)GlcNAc
# Outline: as §1
# [22] = molecular target: GlcNAc(b1-4)GlcNAc(b1-4)GlcNAc
# Outline: as §1
# [23] = molecular target: GlcNAc(b1-4)GlcNAc(b1-4)GlcNAc(b1-4)GlcNAc(b1-4)GlcNAc
# Outline: as §1
# [24] = molecular target: GlcNAc(b1-4)GlcNAc(b1-4)GlcNAc(b1-4)GlcNAc(b1-4)GlcNAc(b1-4)GlcNAc
# Outline: as §1
# [25] = molecular target: GlcNAc(b1-4)[GlcNAc(b1-6)]GalNAc
# Outline: as §1
# [26] = molecular target: GlcNAc(b1-6)Gal(b1-4)GlcNAc
# Outline: as §1
# GlcNAc(b1-6)GalNAc = molecular target: GlcNAc(b1-6)GalNAc
# Outline: as §1
# [27] = molecular target: GlcNAc6S(b1-3)Gal(b1-4)GlcNAc
# Outline: as §1
# Kdn(a2-3)Gal(b1-3)GalNAc = molecular target: Kdn(a2-3)Gal(b1-3)GalNAc
# Outline: as §1
# Kdn(a2-3)Gal(b1-3)GlcNAc = molecular target: Kdn(a2-3)Gal(b1-3)GlcNAc
# Outline: as §1
# Kdn(a2-3)Gal(b1-4)Glc = molecular target: Kdn(a2-3)Gal(b1-4)Glc
# Outline: as §1
# Kdn(a2-3)Gal(b1-4)GlcNAc = molecular target: Kdn(a2-3)Gal(b1-4)GlcNAc
# Outline: as §1
# [28] = molecular target: Kdn(a2-3)Gal(b1-4)[Fuc(a1-3)]GlcNAc
# Outline: as §1
# Kdn(a2-6)Gal(b1-4)GlcNAc = molecular target: Kdn(a2-6)Gal(b1-4)GlcNAc
# Outline: as §1
# [29] = molecular target: Man(a1-2)Man(a1-2)Man(a1-3)Man
# Outline: as §1
# [30] = molecular target: Man(a1-2)Man(a1-2)Man(a1-6)[Man(a1-3)]Man
# Outline: as §1
# Man(a1-2)Man(a1-3)Man = molecular target: Man(a1-2)Man(a1-3)Man
# Outline: as §1
# [31] = molecular target: Man(a1-2)Man(a1-3)[Man(a1-2)Man(a1-6)]Man
# Outline: as §1
# [32] = molecular target: Man(a1-2)Man(a1-3)[Man(a1-2)Man(a1-6)]Man(a1-6)[Man(a1-2)Man(a1-2)Man(a1-3)]Man
# Outline: as §1
# [33] = molecular target: Man(a1-2)Man(a1-3)[Man(a1-2)Man(a1-6)]Man(a1-6)[Man(a1-2)Man(a1-2)Man(a1-3)]Man(b1-4)GlcNAc(b1-4)GlcNAc
# Outline: as §1
# [34] = molecular target: Man(a1-2)Man(a1-3)[Man(a1-6)]Man(a1-6)[Man(a1-2)Man(a1-3)]Man(b1-4)GlcNAc(b1-4)GlcNAc
# Outline: as §1
# [35] = molecular target: Man(a1-2)Man(a1-6)[Man(a1-3)]Man(a1-6)[Man(a1-2)Man(a1-2)Man(a1-3)]Man
# Outline: as §1
binder,measurement,setting,value
B1,glycan array binding signal (z-score),[1],0.135
same,glycan array binding signal (z-score),[2],0.911
same,glycan array binding signal (z-score),[3],2.52
same,glycan array binding signal (z-score),[4],2.41
same,glycan array binding signal (z-score),[5],3.65
same,glycan array binding signal (z-score),[6],3.32
same,glycan array binding signal (z-score),[7],4.09
same,glycan array binding signal (z-score),[8],4.05
same,glycan array binding signal (z-score),[9],4.23
same,glycan array binding signal (z-score),[10],5.64
same,glycan array binding signal (z-score),[11],1.03
same,glycan array binding signal (z-score),[12],0.937
same,glycan array binding signal (z-score),[13],0.857
same,glycan array binding signal (z-score),[14],-0.081
same,glycan array binding signal (z-score),[15],0.065
same,glycan array binding signal (z-score),[16],0.674
same,glycan array binding signal (z-score),GlcNAc(b1-3)GalNAc,2.11
same,glycan array binding signal (z-score),GlcNAc(b1-3)Man,-0.267
same,glycan array binding signal (z-score),[17],-0.272
same,glycan array binding signal (z-score),[18],0.42
same,glycan array binding signal (z-score),[19],0.283
same,glycan array binding signal (z-score),[20],-0.353
same,glycan array binding signal (z-score),[21],0.18
same,glycan array binding signal (z-score),GlcNAc(b1-4)GlcNAc,1.34
same,glycan array binding signal (z-score),[22],1.91
same,glycan array binding signal (z-score),[23],1.12
same,glycan array binding signal (z-score),[24],0.605
same,glycan array binding signal (z-score),[25],-0.273
same,glycan array binding signal (z-score),[26],-0.255
same,glycan array binding signal (z-score),GlcNAc(b1-6)GalNAc,-0.137
same,glycan array binding signal (z-score),[27],-0.258
same,glycan array binding signal (z-score),Kdn(a2-3)Gal(b1-3)GalNAc,0.731
same,glycan array binding signal (z-score),Kdn(a2-3)Gal(b1-3)GlcNAc,-0.281
same,glycan array binding signal (z-score),Kdn(a2-3)Gal(b1-4)Glc,-0.248
same,glycan array binding signal (z-score),Kdn(a2-3)Gal(b1-4)GlcNAc,-0.27
same,glycan array binding signal (z-score),[28],-0.24
same,glycan array binding signal (z-score),Kdn(a2-6)Gal(b1-4)GlcNAc,-0.248
same,glycan array binding signal (z-score),[29],-0.265
same,glycan array binding signal (z-score),[30],-0.215
same,glycan array binding signal (z-score),Man(a1-2)Man(a1-3)Man,-0.273
same,glycan array binding signal (z-score),[31],-0.266
same,glycan array binding signal (z-score),[32],-0.249
same,glycan array binding signal (z-score),[33],-0.228
same,glycan array binding signal (z-score),[34],-0.265
same,glycan array binding signal (z-score),[35],-0.251
